TetR repression strength data for 102 sequences are collected here from a collection of fitness landscapes (doi:10.1038/s41467-024-54723-y).

Over roughly 18,000 sequences, “TetR repression strength (sort-seq, GFP reporter)” has its median near 0.23; the highest 2% begin near 0.68. The list shows a part of the results.

Sequence of UniProt P04483 (P04483 whole entry): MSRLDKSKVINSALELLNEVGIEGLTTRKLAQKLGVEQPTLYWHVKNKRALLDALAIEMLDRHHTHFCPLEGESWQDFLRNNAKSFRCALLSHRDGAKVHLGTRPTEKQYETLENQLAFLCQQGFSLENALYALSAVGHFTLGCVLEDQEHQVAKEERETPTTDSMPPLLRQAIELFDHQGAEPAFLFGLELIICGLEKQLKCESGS

The experiment has as its target TetR (class B, Tn10) (UniProt P04483). Kind of experiment: TetR repression strength (sort-seq, GFP reporter) (relative to tetO2 = 1); higher = stronger repression. The note with it: E. coli. In outline:
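Repression strength was calculated by subtracting the read-weighted mean bin from the top bin index plus one and dividing by the unaltered operator's value. The plasmid library was low-copy in E. coli SIG10-MAX, with eight randomized operator positions between a constitutive promoter and sfGFP and constitutive TetR. Cultures grew 5 h at 37 °C in LB containing 50 µg/mL chloramphenicol before 10^6 cells were sorted by FACS into 13 fluorescence bins, each sequenced on Illumina. Three independent transformations were averaged for members having ≥30 reads in all replicates and a CV ≤0.5.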
As for TCCCTAGCAGTCGAAGAGA, the TetR repression strength was determined as 0.189.
In the case of TCCCCTGGAGTATGCGAGA it was 0.196.
Turning to TCCCGACCAGTCGTGGAGA, the TetR repression strength was 0.158.
The sequence TCCCTCTTAGTTTTTGAGA gave a TetR repression strength of 0.207.
Take TCCCTGCCAGTATTAGAGA: the TetR repression strength came to 0.343.
In the case of TCCCACGGAGTCACCGAGA it was 0.205; in that of TCCCAACTAGTCGTTGAGA, 0.236.
Sequence TCCCAGTTAGTAGGAGAGA came in with a TetR repression strength of 0.229.
Under TCCCTTTTAGTCGGAGAGA stands 0.598.
In the case of TCCCGGAGAGTGGTGGAGA it was 0.29; in that of TCCCCCGAAGTGTCGGAGA, 0.21.
Under TCCCGAAGAGTAACTGAGA stands 0.279; under TCCCTTGAAGTTGTTGAGA, 0.202.
Sequence TCCCGACGAGTTTCGGAGA came in with a TetR repression strength of 0.0777.
Consider TCCCCCCAAGTGCGAGAGA, for which the TetR repression strength turned out to be 0.194.
In turn, TCCCAGCTAGTTTTGGAGA registered a TetR repression strength of 0.212.
Under TCCCGTTAAGTGGCGGAGA stands 0.134.
In turn, TCCCTGCGAGTGTGAGAGA returned a TetR repression strength of 0.116.
In the case of TCCCTGTGAGTGAGTGAGA it was 0.242.
As to TCCCATAGAGTCCTTGAGA, the TetR repression strength worked out at 0.333.
Under TCCCTTTGAGTCCTTGAGA stands 0.22; under TCCCGGTTAGTCAAAGAGA, 0.316; under TCCCAGGGAGTTCCCGAGA, 0.272.
For the sequence TCCCTGGGAGTACGCGAGA, the TetR repression strength came out at 0.116.
Under TCCCGTTAAGTCAAGGAGA stands 0.383.
Under TCCCGCAGAGTTAGCGAGA stands 0.168; under TCCCTACAAGTACAGGAGA, 0.249; under TCCCCGTAAGTGCGTGAGA, 0.269.
For TCCCATCTAGTACGGGAGA, the TetR repression strength was 0.134.
In the case of TCCCTCACAGTTCCTGAGA it was 0.368.
In the case of TCCCTGCGAGTCCCTGAGA it was 0.194; in that of TCCCCTGAAGTGGTGGAGA, 0.0248.
Regarding TCCCCACAAGTGGGGGAGA, the TetR repression strength worked out at 0.157.
With TCCCCGAAAGTGGTTGAGA, the TetR repression strength turned out to be 0.272.
The sequence TCCCATAAAGTTAGTGAGA returned a TetR repression strength of 0.0787.
Regarding TCCCTAATAGTGTTCGAGA, the TetR repression strength was 0.362.
Consider TCCCATGGAGTGATAGAGA, for which the TetR repression strength amounted to 0.548.
Under TCCCTTGCAGTGTACGAGA stands 0.204; under TCCCCTTTAGTATACGAGA, 0.259; under TCCCAAGTAGTAGTAGAGA, 0.0243.
Sequence TCCCCCCGAGTGATCGAGA gave a TetR repression strength of 0.162.
In the case of TCCCGTTTAGTCTCTGAGA it was 0.0895.
The sequence TCCCTAGGAGTGTCTGAGA had a TetR repression strength of 0.134.
As for TCCCAGTGAGTAGTCGAGA, the TetR repression strength was determined as 0.212.
In the case of TCCCAGCTAGTAGTCGAGA it was 0.463; in that of TCCCCGCTAGTCGTGGAGA, 0.216; in that of TCCCTGAGAGTTATGGAGA, 0.0707.
In the case of TCCCCGCTAGTGGCGGAGA it was 0.229; in that of TCCCTTGAAGTGGTTGAGA, 0.261; in that of TCCCAGGGAGTCTTCGAGA, 0.16.
Under TCCCTGTAAGTGAGGGAGA stands 0.157; under TCCCTAGCAGTTTCTGAGA, 0; under TCCCGTGAAGTGACGGAGA, 0.297.
For the sequence TCCCCTGAAGTTGCGGAGA, the TetR repression strength is 0.0976.
In turn, TCCCCGTGAGTTTTTGAGA showed a TetR repression strength of 0.286.
Under TCCCATAAAGTCAGTGAGA stands 0.311; under TCCCACCAAGTGAGGGAGA, 0.324; under TCCCCCACAGTAAGAGAGA, 0.158.
Sequence TCCCAGATAGTTCAGGAGA registered a TetR repression strength of 0.474.
For the sequence TCCCGTAAAGTGAGAGAGA, the TetR repression strength came to 0.207.
In the case of TCCCGTTTAGTATGGGAGA, the TetR repression strength was found to be 0.225.
TCCCGGAAAGTATACGAGA had a TetR repression strength of 0.207.
In the case of TCCCAAGGAGTGAAAGAGA it was 0.213; in that of TCCCCGACAGTAGTCGAGA, 0.233; in that of TCCCTCTGAGTCATAGAGA, 0.207.
As for TCCCGGGGAGTGTTCGAGA, the TetR repression strength was found to be 0.331.
In the case of TCCCAATGAGTTGTGGAGA it was 0.19; in that of TCCCGGGTAGTCTAGGAGA, 0.199; in that of TCCCTGAAAGTAGTAGAGA, 0.597.
The sequence TCCCATGCAGTATGGGAGA yielded a TetR repression strength of 0.192.
Turning to TCCCATTTAGTCCGGGAGA, the TetR repression strength amounted to 0.181.
In the case of TCCCTGAGAGTGAGGGAGA it was 0.246; in that of TCCCGGACAGTTAGAGAGA, 0.456; in that of TCCCAGCAAGTTTGGGAGA, 0.222.
In the case of TCCCAGAGAGTTTGAGAGA it was 0.278.
In the case of TCCCGGATAGTGCTTGAGA it was 0.127; in that of TCCCCAATAGTATTGGAGA, 0.224.
In turn, TCCCTGGTAGTTACTGAGA gave a TetR repression strength of 0.215.
TCCCGCGAAGTAACCGAGA registered a TetR repression strength of 0.211.
Under TCCCAAGCAGTATGCGAGA stands 0.102; under TCCCCGTAAGTTGCAGAGA, 0.216.
Under TCCCGTATAGTGAGGGAGA stands 0.0277.
TCCCCACAAGTCGGAGAGA had a TetR repression strength of 0.341.
Under TCCCTGCTAGTTGGAGAGA stands 0.285; under TCCCGCAAAGTCGGCGAGA, 0.202.
Sequence TCCCTCAGAGTGGGGGAGA came in with a TetR repression strength of 0.144.
TCCCCGTGAGTCTGAGAGA: the TetR repression strength came out at 0.215.
On to TCCCAAATAGTTCCTGAGA, for which the TetR repression strength is 0.246.
The sequence TCCCCAGTAGTGAAAGAGA yielded a TetR repression strength of 0.331.
Consider TCCCATGAAGTGGGGGAGA, for which the TetR repression strength amounted to 0.0668.
In the case of TCCCTGAAAGTAGAGGAGA it was 0.0426; in that of TCCCGGGGAGTTGCTGAGA, 0.261; in that of TCCCACGAAGTTCCAGAGA, 0.319.
Under TCCCGTATAGTTTCCGAGA stands 0.434; under TCCCTTGGAGTCGTCGAGA, 0.511.
Under TCCCCAGAAGTATCGGAGA stands 0.213; under TCCCCTTTAGTTGTAGAGA, 0.246.
As to TCCCTCGAAGTTTTCGAGA, the TetR repression strength was 0.415.
Under TCCCTGGCAGTTGATGAGA stands 0.204; under TCCCTATTAGTGGGGGAGA, 0.358; under TCCCGAGAAGTCAGTGAGA, 0.232.
Under TCCCAGGGAGTGATAGAGA stands 0.424.
